Source: article PMC4336329 (PLoS ONE, 2015)
Out of some 310,000 compounds screened, about 14,000 (4.5%) showed an effect of 50% or more. The effect is printed as a negative number. The list shows a part of the results.

target: human ether-à-go-go-related gene (hERG) potassium channel (human, UniProt Q12809); test: primary screen, population patch clamp on CHO cells stably expressing hERG
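Also: peak tail current of the secondary pulse compared with the same well before compound.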

Chain of human ether-à-go-go-related gene (hERG) potassium channel (Q12809 whole entry, looked up): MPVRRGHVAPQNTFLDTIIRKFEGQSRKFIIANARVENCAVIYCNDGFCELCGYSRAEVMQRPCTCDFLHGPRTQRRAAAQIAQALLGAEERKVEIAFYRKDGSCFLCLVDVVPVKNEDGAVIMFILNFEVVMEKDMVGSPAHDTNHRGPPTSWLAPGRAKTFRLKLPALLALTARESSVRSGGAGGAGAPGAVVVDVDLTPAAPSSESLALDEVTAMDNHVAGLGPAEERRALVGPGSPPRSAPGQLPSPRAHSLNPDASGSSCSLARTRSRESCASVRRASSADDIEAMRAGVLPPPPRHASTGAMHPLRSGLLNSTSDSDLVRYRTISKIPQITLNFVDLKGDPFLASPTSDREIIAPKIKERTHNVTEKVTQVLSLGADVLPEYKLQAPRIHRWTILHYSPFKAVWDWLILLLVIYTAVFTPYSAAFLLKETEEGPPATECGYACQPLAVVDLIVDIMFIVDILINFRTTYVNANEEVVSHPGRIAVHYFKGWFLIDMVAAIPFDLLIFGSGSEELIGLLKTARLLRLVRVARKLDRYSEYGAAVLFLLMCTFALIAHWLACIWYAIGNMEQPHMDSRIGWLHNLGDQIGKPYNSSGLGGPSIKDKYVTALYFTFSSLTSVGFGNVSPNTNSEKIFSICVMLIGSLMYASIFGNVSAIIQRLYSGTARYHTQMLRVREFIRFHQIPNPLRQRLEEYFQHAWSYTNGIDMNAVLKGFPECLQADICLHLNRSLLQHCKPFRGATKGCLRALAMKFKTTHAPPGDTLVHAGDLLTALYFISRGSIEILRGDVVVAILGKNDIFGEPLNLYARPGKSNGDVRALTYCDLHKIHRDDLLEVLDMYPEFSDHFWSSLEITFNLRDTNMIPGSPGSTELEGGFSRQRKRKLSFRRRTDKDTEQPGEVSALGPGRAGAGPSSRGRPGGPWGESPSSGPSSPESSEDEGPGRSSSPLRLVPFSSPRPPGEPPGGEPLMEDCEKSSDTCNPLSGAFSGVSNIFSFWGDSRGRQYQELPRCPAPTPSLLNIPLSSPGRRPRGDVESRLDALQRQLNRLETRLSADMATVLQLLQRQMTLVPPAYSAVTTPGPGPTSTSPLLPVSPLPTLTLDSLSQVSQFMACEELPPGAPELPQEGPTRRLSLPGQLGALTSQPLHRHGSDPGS

SMILES | hERG current change (%, negative = inhibition) at 10uM [%]
CCCCOc1ccc(NC(=O)CN2CCN(C(=O)OCC)CC2)cc1.Cl | -28.6
Cn1c(NCc2cccc(Br)c2)nc2ccccc21 | -22.2
Cc1ccc(NC(=O)CNC(=O)c2ccc(Br)o2)nc1 | -7.52
O=C1NC(c2ccccc2)(C(F)(F)F)SC2=NCCCN12 (stereo not shown) | -0.213
COc1ccc(NC(=O)C2CCN(S(C)(=O)=O)CC2)c(OC)c1 | 19.3
Cc1nn(Cc2ccccc2)c(C)c1C(=O)N1CCN(CC(=O)Nc2ccc(F)cc2)CC1 | -62.6
Cc1ccc(OCC(=O)N2CCN(C)CC2)c(Br)c1 | -7.32
COc1ccccc1-c1noc(-c2ccccc2C(=O)N2CCOCC2)n1 | 0.765
O=S(=O)(NCCc1nnc2ccc(SCc3cccnc3)nn12)c1ccccc1 | -2.63
CCc1ccc(C2=NN(C(=O)OC)C(O)(C(F)(F)F)C2)cc1 (stereo not shown) | -7.41
COc1ccc(CC(=O)Nc2ccc(S(=O)(=O)NCC3CCCO3)cc2)cc1 (stereo not shown) | 11.7
O=C(COC(=O)c1ccccc1C(=O)c1ccccc1)NCc1ccc(F)cc1 | -34.9
CCn1cc(C(=O)N2CCCC2)c(=O)c2cc(S(=O)(=O)N3CCC(C)CC3)ccc21 | 6.02
COc1ccc(C(=O)NCCS(=O)(=O)NC2CCCC2)cc1 | 14.2
O=C(O)CCCN1C(=O)c2ccc(Oc3cccc([N+](=O)[O-])c3)cc2C1=O | 17.6
Cn1c(=O)c2c(ncn2CC(=O)OCC(=O)NCc2ccc(Cl)cc2)n(C)c1=O | -18.3
O=C1CSC(=S)N1c1ccc(Cl)c(Cl)c1 | 20.7
Nc1c(Cl)ncnc1N/N=C/c1ccc(O)cc1 | 12.2
COc1ccc(CNC(=O)COC(=O)/C=C/c2ccc(Cl)cc2)cc1 | 4.95
O=C(c1ccccc1NS(=O)(=O)c1ccc(Br)s1)N1CCCC1 | -7.15
COc1ccc(C(=O)Nc2c(N)nc(SCC(=O)NCC3CCCO3)[nH]c2=O)cc1 (stereo not shown) | 2.79
O=C(NCc1ccccc1)c1c(O)c2ccccc2[nH]c1=O | 15.4

SMILES | hERG current change (%, negative = inhibition) at 10uM [%]
CCOC(=O)c1ccccc1NC(=O)COC(=O)c1c(CC)noc1C | 11.9
CCCCNC(=S)N(Cc1c(C)noc1C)c1ccccc1 | -17.7
CCOC(=O)C1=C(CC)OC(N)=C(C#N)C1c1ccc(F)cc1F (stereo not shown) | 5.77
Cn1c(NC(=O)c2ccccc2F)cc(=O)n(C)c1=O | -0.469
CC(NC(=O)c1ccccc1)c1ccc(F)cc1 (stereo not shown) | -18.9
CCOC(=O)c1nnn(CC(=O)Nc2ccccc2)c1C(=O)OCC | 13.3
COc1ccccc1OCc1ccc(C(=O)Nc2ccccc2)cc1 | 11.1
O=C(Nc1ccc(Nc2ccccc2)cc1)c1ccc(Cl)cc1 | 2.48
COc1ccccc1CNC(=O)CCS(=O)(=O)c1ccc(Cl)cc1 | -18.3
c1ccc2cc(OCCN3CCCC3)ccc2c1 | -33.1
Cn1c(CC(=O)Nc2ccccc2F)nnc1SCC(=O)NC1CCCCC1 | 7.48
Nn1cnc2sc3c(c2c1=O)CCC3 | 2.29
CC(=O)Nc1cccc(C(=O)N2CCN(S(=O)(=O)c3ccc4ccccc4c3)CC2)c1 | -14.4
O=C(c1ccccc1)c1ccc(OCC(O)CNC2CCCc3ccccc32)cc1 (stereo not shown) | -31.7
Cc1ccc(Oc2nc3ccccn3c(=O)c2/C=C(\C#N)C(=O)Nc2c(C)n(C)n(-c3ccccc3)c2=O)cc1 | -2.06
CCOc1cc(/C=C2\N=C(SCC)SC2=O)cc([N+](=O)[O-])c1OC(C)=O | 3.2
CCOc1cc(CNCCc2ccc(S(N)(=O)=O)cc2)ccc1OCC(=O)NC(C)(C)C.Cl | 4.8
COc1ccc(CCN(C)Cc2nc(-c3cnccn3)no2)cc1OC | 19.9
O=C(CSc1nnc(CNC(=O)c2c(F)cccc2Cl)o1)NC1CCCCC1 | 8.13
O=C(O)CCC(=O)N(Cc1cccnc1)Cc1cccc(F)c1 | 6.65
O=C(COc1ccc(NC(=O)c2ccccc2)cc1)c1ccccc1 | 20.3
CCCCC(c1nnnn1CC1CCCO1)N1CCN(c2cccc(C)c2C)CC1.Cl (stereo not shown) | -4.53

SMILES | hERG current change (%, negative = inhibition) at 10uM [%]
COC(=O)c1ccc(-c2nc(-c3ccc(Br)o3)no2)cc1 | 0.438
COc1cc(-c2cc(C(=O)OCC(=O)Nc3ccc4c(c3)OCO4)c3ccccc3n2)cc(OC)c1OC | 1.4
CCOc1cc(C(=S)N2CCOCC2)ccc1OC(=O)/C=C/c1ccc(OC)c(OC)c1 | 14.8
Cc1ccc(NC(=O)CCCN2C(=O)c3cccc4cccc(c34)C2=O)cc1 | 5.46
COc1ccc(OCc2ccc(C(=O)N3CCOCC3)cc2)cc1 | 2.13
NC1=NC(=O)C2(COC(c3ccncc3)OC2)S1 (stereo not shown) | 12.9
CCOC(=O)C1(CCCc2ccccc2)CCN(C(=O)c2ocnc2C)CC1 | -56.1
N#CC1=C(N)Oc2c(ccc3ccccc23)C1c1ccsc1 (stereo not shown) | 17.5
COc1ccc(NC(=O)Cc2nnc(SCC(=O)Nc3cc(C)ccc3OC)n2C)cc1 | -3.42
CCCNC(=O)C1(CC2CC(c3ccccc3)=NO2)CCN(C(=O)CCCCCBr)CC1 (stereo not shown) | -50
O=C(CCSCCc1ccccn1)Nc1c(F)c(F)c(F)c(F)c1F | -23.3
CCOC(=O)c1ccccc1NC(=O)c1cn(-c2ccc(C)c(C)c2)c(=O)c2ccccc12 | -2.12
COc1ccc(C(C)=O)cc1CSc1nnc(-c2ccncc2)n1C | 24.2
O=C1NC(=S)N/C1=C/c1cc([N+](=O)[O-])ccc1O | 12.8
O=C(CSc1ccc2nnc(CCNC(=O)c3ccccc3)n2n1)Nc1ccc(F)cc1F | -5.36
CCN(CC)C(=O)C1CC(=O)OC1(C)C (stereo not shown) | -2.28
O=C(NCC1CCCO1)c1nn2c(C(F)(F)F)cc(-c3cc(Br)cs3)nc2c1Br (stereo not shown) | 25.9
CCn1ncc(Br)c1C(=O)NC1CCCCCCC1 | -11.5
COc1ccc(OCCCC(=O)N2CCN(S(=O)(=O)c3cccc(F)c3)CC2)cc1 | -18.8
Cc1[nH]c2ccccc2c1/C=N/NC(=O)c1cc(-c2ccccc2)n[nH]1 | 13.6
CCN(CC(=O)Nc1ccc(N2CCOCC2)cc1)C(=O)COc1ccccc1OC | 9.22
COc1ccc(OC)c(NC(=O)c2cnn(-c3ccccc3Cl)c2NC(=O)c2ccco2)c1 | -7.13

SMILES | hERG current change (%, negative = inhibition) at 10uM [%]
COc1ccc(/C(O)=C2/C(=O)C(=O)N(CCCC(=O)O)C2c2ccc(OC)c(OC)c2)cc1 (stereo not shown) | 7.9
COC(=O)c1ccc(CN(Cc2ccc(C(=O)OC)o2)C(C)(C)C)o1.Cl | -15.5
N#Cc1c(NC(=O)CSc2nc3ccccc3c(=O)n2Cc2ccco2)sc2c1CCCC2 | 3.63
CC/C(C)=C1\SC(N2CCN(c3cccc(C(F)(F)F)c3)CC2)=NC1=O | -7.91
N#CC(C#N)=Cc1cnc(N2CCN(c3ccccc3)CC2)s1 | 23
CCC(=O)NCCc1cc2cc(C)c(C)cc2[nH]c1=O | 7.14
Cc1ccc(NC(=O)C2C3/C=C\CCCCC32)cc1C (stereo not shown) | 11.7
COC(=O)n1c(=O)oc2cc(S(=O)(=O)N3CCCCC3)ccc21 | -4.03
OC1CCCN(CC(O)COC(c2ccccc2)c2ccccc2)C1 (stereo not shown) | -18
COc1ccc(Cn2nnnc2CN2CCCCCC2)cc1 | 15.1
CCOC(=O)c1c(C)nn(-c2ccc(NC(=O)CSCC(=O)O)cc2)c1C | 10.8
COC(=O)c1ccc(NC(=S)NCCCn2ccnc2)cc1 | 17.8
c1ccc(N2CCN(Cc3nc4ccccc4[nH]3)CC2)nc1 | 9.64
CNC(=S)N/N=C(\C)c1ccc2c(c1)OCCO2 | 9.21
COCCn1cnc2cc(C)c(C)cc21 | 1.27
C=CCNC(=S)Nc1ccc2nsnc2c1 | 1.87
COc1cc2[nH]c(=O)n(CCCCCC(=O)NCCCN3CCOCC3)c(=O)c2cc1OC | -3.69
CCOc1c(Nc2cccc(Cl)c2)c(=O)c1=O | -14.2
Cc1ccc(S(=O)(=O)N2CCN(C(=O)CSc3cc(C)ccc3C)CC2)c(C)c1 | -3.08
COc1ccc(-c2c(C#Cc3ccccc3)c3ccccc3n2C)cc1 | 23.5
C/C(=N\NC(=O)CNC(=O)c1ccc2c(c1)OCO2)c1ccco1 | 0.404
CC1(C)O[C@@H]2C[C@H]3[C@@H]4C[C@H](F)C5=CC(=O)CC[C@]5(C)[C@H]4[C@@H](O)C[C@]3(C)[C@]2(C(=O)CO)O1 | 10.3
